Test results from patent publication US20230127965A1, “METHODS FOR TREATING, AMELIORATING, OR PREVENTING VIRAL INFECTIONS” (Thomas Jefferson University, priority 2020, published 2023).

Test system: SARS-CoV-2 Spike protein
Assay: Western blot of SARS-CoV-2 infected Huh7.5 cell lysates probed with α-spike antibody
Format: cell-based
Settings: 10 μM for 2 h, then infected; human Huh7.5 cells; 48 hours post-infection as printed in b253 (FIG. 4)

In the case of `N=C(NCCCOc1ccc(F)cc1)Nc1ccc(Cl)cc1` [CT189], the “SARS-CoV-2 Spike protein level (Western blot)” value (from here on “SARS-CoV-2 Spike protein level”) is reported as “striking decrease”.
`Cc1cc(OCCN2CCOCC2)nn1-c1ccc2ccccc2c1` [Compound S1RA, 4-[2-[[5-methyl-1-(2-naphthalenyl)-1H-pyrazol-3-yl]oxy]ethyl]morpholine] was tested, and the “SARS-CoV-2 Spike protein level” value was “did not”.
With `N=C(Nc1ccc(I)cc1)NC1C2CC3CC(C2)CC1C3` (stereo not drawn) [IPAG] the “SARS-CoV-2 Spike protein level” value was “striking decrease”.
